Lines with a small IC50 respond at low doses; fits outside the tested doses are given as limits. AUC sums up the same curve from the lowest dose to the 256-fold higher top dose; it is 1 without any effect and falls as sensitivity rises. For part of these data: A top dose marked as inferred is not printed in the source and was worked back from the curve model.
Legend:
Experiment in all cases: Viability of human cancer cell lines after 72 h of drug (GDSC screen)
AV-951 = compound: COc1cc2nccc(Oc3ccc(NC(=O)Nc4cc(C)on4)c(Cl)c3)c2cc1OC [AV-951]; settings: top dose 0.128 µM; top dose inferred
Procedure: (§1)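 Human cancer cell lines in 384-well plates, medium with 10% serum, drug for 72 h over a 256-fold dose range (nine 2-fold or five 4-fold steps up to the top dose). Adherent lines were fixed and stained with the nucleic acid dye Syto60, suspension lines read with resazurin; signal relative to control wells, capped at 0 and 100%. One two-parameter sigmoid per drug and line, fitted in a mixed model over all curves with the slope shared within a line.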

HG-6-64-1 = compound: CCN1CCN(Cc2ccc(NC(=O)c3ccc(C)c(/C=C/c4cnc5[nH]ccc5c4OC)c3)cc2C(F)(F)F)CC1 [HG-6-64-1]; settings: top dose 5.12 µM; top dose inferred
Procedure: as §1

KIN001-244 = compound: O=C(NC(COc1ccc2[nH]c(=O)[nH]c2c1)c1ccccc1)c1cccn(Cc2ccc(F)c(F)c2)c1=O [KIN001-244]; settings: top dose 20 µM; top dose inferred
Procedure: as §1

Trametinib = compound: CC(=O)Nc1cccc(-n2c(=O)n(C3CC3)c(=O)c3c(Nc4ccc(I)cc4F)n(C)c(=O)c(C)c32)c1 [Trametinib]; settings: top dose 1 µM
Procedure: as §1

PF-4708671 = compound: CCc1cncnc1N1CCN(Cc2nc3ccc(C(F)(F)F)cc3[nH]2)CC1 [PF-4708671]; settings: top dose 10 µM; top dose inferred
Procedure: as §1

I-BET-762 = compound: CCNC(=O)C[C@@H]1N=C(c2ccc(Cl)cc2)c2cc(OC)ccc2-n2c(C)nnc21 [I-BET-762]; settings: top dose 20 µM; top dose inferred
Procedure: as §1

| Cell Line | AUC (AV-951) | IC50 (AV-951) [µM] | AUC (HG-6-64-1) | IC50 (HG-6-64-1) [µM] | AUC (KIN001-244) | IC50 (KIN001-244) [µM] | AUC (Trametinib) | IC50 (Trametinib) [µM] | AUC (PF-4708671) | IC50 (PF-4708671) [µM] | AUC (I-BET-762) | IC50 (I-BET-762) [µM] |
| --- | --- | --- | --- | --- | --- | --- | --- | --- | --- | --- | --- | --- |
| NCI-H810 (large cell lung carcinoma, adherent) | 0.987 | > 0.128 | 0.762 | 1.75 | 0.848 | 13.9 | 0.982 | > 1 | 0.972 | > 10 | 0.847 | 13.8 |
| NCI-H841 (small cell lung carcinoma, adherent) | 0.988 | > 0.128 | 0.928 | > 5.12 | 0.9 | > 20 | 0.908 | > 1 | 0.936 | > 10 | 0.987 | > 20 |
| NCI-H1048 (small cell lung carcinoma, adherent) | 0.985 | > 0.128 | 0.861 | 3.64 | 0.488 | 1.16 | 0.981 | > 1 | 0.944 | > 10 | 0.954 | > 20 |
| NCI-H1299 (large cell lung carcinoma, adherent) | 0.981 | > 0.128 | 0.758 | 2.15 | 0.889 | > 20 | 0.423 | 0.0365 | 0.97 | > 10 | 0.909 | > 20 |
| NCI-H1435 (lung adenocarcinoma, semi-adherent) | 0.993 | > 0.128 | 0.945 | > 5.12 | 0.925 | > 20 | 0.99 | > 1 | 0.984 | > 10 | 0.992 | > 20 |
| NCI-H1437 (lung adenocarcinoma, adherent) | 0.981 | > 0.128 | 0.909 | > 5.12 | 0.923 | > 20 | 0.436 | 0.0416 | 0.961 | > 10 | 0.913 | > 20 |
| NCI-H1563 (lung adenocarcinoma, adherent) | 0.976 | > 0.128 | 0.868 | > 5.12 | 0.84 | 17.8 | 0.718 | 0.295 | 0.975 | > 10 | 0.925 | > 20 |
| NCI-H1568 (lung adenocarcinoma, adherent) | 0.976 | > 0.128 | 0.806 | 3.42 | 0.973 | > 20 | 0.516 | 0.0698 | 0.895 | > 10 | 0.981 | > 20 |
| NCI-H1573 (lung adenocarcinoma, adherent) | 0.99 | > 0.128 | 0.986 | > 5.12 | 0.959 | > 20 | 0.776 | 0.388 | 0.981 | > 10 | 0.977 | > 20 |
| NCI-H1623 (lung adenocarcinoma, adherent) | 0.984 | > 0.128 | 0.982 | > 5.12 | 0.906 | > 20 | 0.672 | 0.211 | 0.901 | > 10 | 0.97 | > 20 |
| NCI-H1651 (lung adenocarcinoma, adherent) | 0.987 | > 0.128 | 0.781 | 2.31 | 0.977 | > 20 | 0.937 | > 1 | 0.845 | 8.08 | 0.962 | > 20 |
| NCI-H1688 (small cell lung carcinoma, adherent) | 0.979 | > 0.128 | 0.871 | > 5.12 | 0.831 | 14.4 | 0.947 | > 1 | 0.963 | > 10 | 0.972 | > 20 |
| NCI-H1693 (lung adenocarcinoma, adherent) | 0.97 | > 0.128 | 0.942 | > 5.12 | 0.938 | > 20 | 0.637 | 0.188 | 0.868 | > 10 | 0.837 | > 20 |
| NCI-H1703 (lung adenocarcinoma, adherent) | 0.75 | 0.0502 | 0.726 | 1.65 | 0.923 | > 20 | 0.976 | > 1 | 0.976 | > 10 | 0.981 | > 20 |
| NCI-H1755 (lung adenocarcinoma, adherent) | 0.984 | > 0.128 | 0.659 | 0.955 | 0.805 | 12.1 | 0.764 | 0.418 | 0.908 | > 10 | 0.656 | 3.65 |
| NCI-H1781 (lung adenocarcinoma, adherent) | 0.989 | > 0.128 | 0.986 | > 5.12 | 0.881 | > 20 | 0.868 | 0.915 | 0.981 | > 10 | 0.988 | > 20 |
| NCI-H1792 (lung adenocarcinoma, adherent) | 0.985 | > 0.128 | 0.609 | 0.617 | 0.962 | > 20 | 0.269 | 0.0149 | 0.987 | > 10 | 0.99 | > 20 |
| NCI-H1793 (lung adenocarcinoma, adherent) | 0.982 | > 0.128 | 0.688 | 1.34 | 0.952 | > 20 | 0.766 | 0.526 | 0.928 | > 10 | 0.981 | > 20 |
| NCI-H1915 (large cell lung carcinoma, adherent) | 0.984 | > 0.128 | 0.799 | 2.5 | 0.914 | > 20 | 0.175 | 0.00637 | 0.988 | > 10 | 0.953 | > 20 |
| NCI-H1944 (lung adenocarcinoma, adherent) | 0.984 | > 0.128 | 0.79 | 2.45 | 0.861 | 18.8 | 0.624 | 0.141 | 0.952 | > 10 | 0.895 | > 20 |

| Cell Line | AUC (AV-951) | IC50 (AV-951) [µM] | AUC (HG-6-64-1) | IC50 (HG-6-64-1) [µM] | AUC (KIN001-244) | IC50 (KIN001-244) [µM] | AUC (Trametinib) | IC50 (Trametinib) [µM] | AUC (PF-4708671) | IC50 (PF-4708671) [µM] | AUC (I-BET-762) | IC50 (I-BET-762) [µM] |
| --- | --- | --- | --- | --- | --- | --- | --- | --- | --- | --- | --- | --- |
| NCI-H1993 (lung adenocarcinoma, adherent) | 0.977 | > 0.128 | 0.944 | > 5.12 | 0.884 | > 20 | 0.652 | 0.189 | 0.945 | > 10 | 0.94 | > 20 |
| NCI-H2009 (lung adenocarcinoma, adherent) | 0.986 | > 0.128 | 0.734 | 1.55 | 0.942 | > 20 | 0.624 | 0.14 | 0.986 | > 10 | 0.947 | > 20 |
| NCI-H2023 (lung adenocarcinoma, adherent) | 0.981 | > 0.128 | 0.935 | > 5.12 | 0.942 | > 20 | 0.559 | 0.0942 | 0.98 | > 10 | 0.974 | > 20 |
| NCI-H2029 (small cell lung carcinoma, adherent) | 0.992 | > 0.128 | 0.986 | > 5.12 | 0.908 | > 20 | 0.989 | > 1 | 0.991 | > 10 | 0.974 | > 20 |
| NCI-H2085 (lung adenocarcinoma, adherent) | 0.985 | > 0.128 | 0.778 | 2.26 | 0.804 | 11 | 0.897 | > 1 | 0.987 | > 10 | 0.949 | > 20 |
| NCI-H2087 (lung adenocarcinoma, semi-adherent) | 0.985 | > 0.128 | 0.699 | 1.22 | 0.899 | > 20 | 0.298 | 0.0161 | 0.98 | > 10 | 0.949 | > 20 |
| NCI-H2110 (non-small cell lung carcinoma, adherent) | 0.984 | > 0.128 | 0.773 | 2.04 | 0.667 | 3.69 | 0.777 | 0.411 | 0.939 | > 10 | 0.899 | > 20 |
| NCI-H2122 (lung adenocarcinoma, adherent) | 0.989 | > 0.128 | 0.907 | > 5.12 | 0.976 | > 20 | 0.17 | 0.00683 | 0.989 | > 10 | 0.987 | > 20 |
| NCI-H2170 (lung squamous cell carcinoma, adherent) | 0.987 | > 0.128 | 0.929 | > 5.12 | 0.976 | > 20 | 0.971 | > 1 | 0.949 | > 10 | 0.962 | > 20 |
| NCI-H2172 (non-small cell lung carcinoma, adherent) | 0.979 | > 0.128 | 0.951 | > 5.12 | 0.952 | > 20 | 0.931 | > 1 | 0.896 | > 10 | 0.911 | > 20 |
| NCI-H2291 (lung adenocarcinoma, adherent) | 0.984 | > 0.128 | 0.983 | > 5.12 | 0.978 | > 20 | 0.126 | < 0.00391 | 0.918 | > 10 | 0.982 | > 20 |
| NCI-H2342 (lung adenocarcinoma, adherent) | 0.986 | > 0.128 | 0.572 | 0.515 | 0.882 | > 20 | 0.954 | > 1 | 0.88 | > 10 | 0.986 | > 20 |
| NCI-H2347 (lung adenocarcinoma, adherent) | 0.982 | > 0.128 | 0.889 | > 5.12 | 0.922 | > 20 | 0.33 | 0.0189 | 0.944 | > 10 | 0.966 | > 20 |
| NCI-H2405 (lung adenocarcinoma, adherent) | 0.979 | > 0.128 | 0.539 | 0.413 | 0.941 | > 20 | 0.647 | 0.168 | 0.943 | > 10 | 0.98 | > 20 |
| NCI-H2444 (non-small cell lung carcinoma, adherent) | 0.988 | > 0.128 | 0.969 | > 5.12 | 0.985 | > 20 | 0.9 | > 1 | 0.979 | > 10 | 0.935 | > 20 |
| NCI-H2452 (mesothelioma, adherent) | 0.982 | > 0.128 | 0.733 | 1.7 | 0.981 | > 20 | 0.687 | 0.234 | 0.975 | > 10 | 0.98 | > 20 |
| NCI-H3122 (lung adenocarcinoma, adherent) | 0.984 | > 0.128 | 0.827 | 3.26 | 0.875 | > 20 | 0.388 | 0.0304 | 0.969 | > 10 | 0.902 | > 20 |
| NUGC-3 (stomach, adherent) | 0.983 | > 0.128 | 0.772 | 2.23 | 0.915 | > 20 | 0.52 | 0.0715 | 0.935 | > 10 | 0.979 | > 20 |
| NUGC-4 (stomach, adherent) | 0.987 | > 0.128 | 0.731 | 1.46 | 0.832 | 12.8 | 0.138 | 0.00456 | 0.978 | > 10 | 0.984 | > 20 |
| NY (osteosarcoma, adherent) | 0.989 | > 0.128 | 0.568 | 0.488 | 0.989 | > 20 | 0.931 | > 1 | 0.956 | > 10 | 0.989 | > 20 |

Source: the supplement of paper PMC4967469
